# Assay results: the supplement of paper PMC3334620
# The full ranking holds about 33,000 sequences; the median of “E-score (-0.5 to 0.5)” is about -0.012, and the highest 2% start at about 0.27. The list shows a part of the results.
# Molecular target: T1, Vhr1 (UniProt P40522)
# T1 sequence: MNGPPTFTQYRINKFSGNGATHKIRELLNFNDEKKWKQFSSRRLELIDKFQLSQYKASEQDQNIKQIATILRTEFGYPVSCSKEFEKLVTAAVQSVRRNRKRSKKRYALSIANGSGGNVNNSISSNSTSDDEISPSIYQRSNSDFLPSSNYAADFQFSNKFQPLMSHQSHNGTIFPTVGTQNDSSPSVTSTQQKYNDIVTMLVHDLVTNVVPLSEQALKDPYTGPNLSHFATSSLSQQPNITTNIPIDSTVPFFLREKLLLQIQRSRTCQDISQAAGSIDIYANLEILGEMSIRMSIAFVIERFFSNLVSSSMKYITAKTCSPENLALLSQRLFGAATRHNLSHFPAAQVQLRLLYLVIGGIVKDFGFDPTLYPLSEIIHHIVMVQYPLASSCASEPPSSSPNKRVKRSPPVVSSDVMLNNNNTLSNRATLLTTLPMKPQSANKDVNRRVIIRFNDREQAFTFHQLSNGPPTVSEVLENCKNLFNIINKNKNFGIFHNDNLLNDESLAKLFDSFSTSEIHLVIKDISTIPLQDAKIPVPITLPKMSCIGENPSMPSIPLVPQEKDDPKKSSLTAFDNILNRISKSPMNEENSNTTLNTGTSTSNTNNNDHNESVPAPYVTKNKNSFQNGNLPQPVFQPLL
# Assay: PBM E-score (8-mer binding enrichment) (E-score (-0.5 to 0.5)); higher = stronger / more preferred TF binding; most listed sequences are background and not binding sites
# Settings: protein concentration: 200 nM; construct: GST-full length
# Method in brief: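 E-scores (a modified Wilcoxon-Mann-Whitney statistic) were assigned by the Universal PBM Analysis Suite to every ungapped eight-base word pooled with its reverse complement. The input came from universal all-10-mer Agilent arrays made double-stranded by primer extension and probed with GST-tagged yeast transcription factors at about 100-200 nM. Fluorescent anti-GST detected bound protein, and masliner normalised the scans.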
row,Sequence,PBM E-score
1,AGCACGAT,0.0348
2,AAGGGTAG,-0.0897
3,AGCGCGGA,0.159
4,CTTTGCCC,-0.173
5,ACGCACTA,0.116
6,CCCCTGAA,0.0845
7,ATGTATGG,0.0248
8,AGACCCCC,-0.325
9,ATCTATTA,-0.00749
10,ATTCTATG,0.252
11,AGGATATG,0.161
12,ATACCGAA,-0.0363
13,TGAACAAA,0.16
14,ATACGGGC,-0.145
15,CAGTCTGG,-0.111
16,GCAGAATA,-0.124
17,CAACTCAC,0.263
18,ACGAGCCC,0.124
19,GCTCGCAC,-0.081
20,AAGTCAAA,0.00983
21,AAGCACGG,-0.272
22,TGAGGACA,-0.0851
23,AAACATTA,-0.0598
24,CCGCTTAG,-0.0233
25,CCCACAGG,-0.11

row,Sequence,PBM E-score
1,CGGCCGGA,-0.0197
2,TCTAACCA,0.0405
3,CCTACAGC,-0.0679
4,GAGCTCGA,0.107
5,ATGCCCTC,-0.0196
6,CTACAGAA,0.0819
7,ATCATCGC,0.259
8,CCTTTGTC,-0.0631
9,CAGAAATA,-0.0398
10,AACGGCAC,-0.09
11,CTCCGAAG,-0.179
12,AATTTTTG,-0.189
13,AATCGTGG,0.214
14,CCCTCACG,0.0387
15,GCATGCCC,0.127
16,GGGTTGAC,0.152
17,AAAAGGAG,-0.278
18,AGACGACG,-0.0292
19,ATCCAGTA,0.102
20,CCCTTGTA,-0.174
21,TAGGCACA,-0.0995
22,GTGATTTA,0.321
23,TCCGGGAA,-0.0875
24,CAGAGATC,0.0592
25,AACTGAAA,-0.0534

row,Sequence,PBM E-score
1,CCCAAGAC,-0.0608
2,CTCTCGCA,-0.0103
3,CAGAGATG,0.0531
4,CATCTTCA,-0.0611
5,CCTGACTC,0.479
6,AGACCTTC,-0.206
7,GCCCATCA,0.0129
8,TCAATTGA,-0.0329
9,CCAGCGCG,0.189
10,CATCGGTC,0.133
11,GCAAGAAC,-0.172
12,GCGCCCGC,0.00897
13,GCGATCCC,-0.013
14,ACTGAGAT,-0.102
15,AACTAAAG,-0.13
16,AGGGAACA,-0.107
17,TACGCATA,-0.0141
18,CTTGTCGC,0.0617
19,TATCGAAA,0.0982
20,CAGGATTA,0.0727
21,GTATCAAC,0.152
22,CGAGCACC,0.0192
23,ACGACGAT,0.127
24,AAATATGG,0.0289
25,CTTGGGCC,-0.158

row,Sequence,PBM E-score
1,ATCAAGGG,0.0834
2,AGCAGTAC,0.138
3,ACCACGTC,-0.0231
4,CTCTCGTA,0.00128
5,GCACCCCC,-0.138
6,ACCGTGAT,0.13
7,ACCTGACG,-0.0943
8,ACCGGGTG,0.127
9,GGGGAACC,-0.0109
10,TGGTCACA,0.035
11,CTGACCAA,0.0537
12,AGCAACCT,0.0102
13,AACAGGTG,-0.101
14,CCAAATCG,-0.166
15,ACAATACC,0.144
16,GGGGTACA,-0.169
17,CCTCAGAC,-0.121
18,ACCACATC,0.276
19,ATGTTGAG,0.163
20,AACTTTGG,-0.112
21,GCAATTCC,-0.163
22,AAACAAGT,-0.143
23,CTGGGGCC,-0.203
24,GCAATGGA,-0.128
25,ACTACCGG,-0.0155

row,Sequence,PBM E-score
1,CTGCCTCA,-0.166
2,GATTAGCA,0.0898
3,TCGCAACA,0.0193
4,ATTGACCA,0.108
5,CGCTAATA,0.042
6,GTTAAACA,-0.0739
7,AGCCCCGC,-0.0719
8,AAGTGGCA,-0.149
9,GATGCCCC,-0.201
10,CATCTCGG,0.0902
11,ATATGACG,0.0183
12,ACCACAGA,0.148
13,AAATCGTC,-0.041
14,AGAGCCAG,-0.036
15,CACCATTA,0.231
16,ACTGCTTA,-0.0673
17,AGCCGCAT,0.0935
18,CTCTAGAC,-0.104
19,ACATACTA,0.0441
20,ATGAAAAG,-0.225
21,AACGCTTC,-0.0677
22,AACCACCA,0.189
23,CTAAAGAA,-0.196
24,ACCGCGGG,0.312
25,AAAGTAGG,-0.0386

row,Sequence,PBM E-score
1,AGAGGCTG,-0.116
2,GTTGACTA,0.261
3,ACATGTAA,0.0646
4,GCCTTGGA,-0.116
5,AACTCTCT,-0.115
6,ACTGCCCG,0.108
7,CTCAAACA,0.0326
8,TAGGCCCA,-0.317
9,ATATCTGC,0.104
10,ACGTCCCT,-0.165
11,ACGATAAA,-0.181
12,ATTGCACC,0.0429
13,CCTTGATA,-0.0757
14,ATATTAAT,0.233
15,ATCTAGCA,-0.0151
16,GGCGCTTA,-0.242
17,ACGACAAC,0.155
18,ATGTGAAC,-0.0413
19,AGCGCTTA,-0.0963
20,TAAATTAA,-0.114
21,TACTCCAA,0.0683
22,AACGAAGG,-0.252
23,TCTTCGCA,-0.0178
24,CTTCAGTC,-0.122
25,ACGTCAAC,0.0638

row,Sequence,PBM E-score
1,GATCGACA,-0.166
2,CCATTTGA,-0.172
3,CGTGCTAA,-0.201
4,AATCTTGT,0.106
5,GTCGCAGA,0.132
6,ACCCTCCC,0.307
7,AGTCTAGA,-0.164
8,TCCAAGGA,-0.143
9,GATCAGGC,-0.00147
10,ATTGAGTG,0.202
11,AAGATGGA,-0.074
12,GCTGCCCA,0.0908
13,AGCGTTGG,-0.0607
14,GCTAATCA,0.262
15,GCGCTGGA,0.168
16,TATTGCCA,0.0264
17,CGAAGTCA,0.203
18,ATTCGCTC,-0.0609
19,GAGCACTA,0.0167
20,ATCGCAAA,-0.164
21,TACAATCA,0.185
22,AAATGTAG,-0.018
